{"source": "PubChem BioAssay (Tox21)", "key": {"[1]": {"assay": "qHTS assay for small molecule activators of the heat shock response signaling pathway (AID 743210; active means well fitted activation curve with a large enough effect in the signal ratio in the repeat runs, with a control signal flat, not every such curve was filed as active; inconclusive means weak or mixed curves; the % refers to the signal ratio)", "conditions": "HeLa HSE-bla reporter, beta-lactamase ratio, 5 h; activation: at 62.6 µM (top of the series) unless noted", "procedure,_shortened": "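Compound exposure lasted 5 h at 37 C in HeLa cells carrying a heat-shock-element-driven beta-lactamase reporter. Read-out: fluorescence intensity after 2.5 h room-temperature loading with LiveBLAzer B/G FRET substrate.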"}, "[2]": {"target": "Peroxisome proliferator-activated receptor delta (Homo sapiens) (UniProt Q03181)", "sequence (Q03181 whole entry, looked up)": "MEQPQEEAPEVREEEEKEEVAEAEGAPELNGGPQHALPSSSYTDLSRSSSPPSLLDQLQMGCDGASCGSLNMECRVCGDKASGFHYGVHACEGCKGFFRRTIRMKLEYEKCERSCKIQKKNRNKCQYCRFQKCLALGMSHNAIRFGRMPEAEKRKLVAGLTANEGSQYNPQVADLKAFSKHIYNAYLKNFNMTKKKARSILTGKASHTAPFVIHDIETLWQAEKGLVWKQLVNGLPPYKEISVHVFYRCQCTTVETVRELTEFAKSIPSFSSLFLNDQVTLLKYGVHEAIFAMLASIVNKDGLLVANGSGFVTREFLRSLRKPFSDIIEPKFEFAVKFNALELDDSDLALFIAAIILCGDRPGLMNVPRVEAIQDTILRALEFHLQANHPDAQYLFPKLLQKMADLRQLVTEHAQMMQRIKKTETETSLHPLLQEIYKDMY", "assay": "qHTS assay to identify small molecule agonists of the peroxisome proliferator-activated receptor delta (PPARd) signaling pathway (AID 743212; calls by dose curve)", "conditions": "HEK293H PPARd-UAS-bla, beta-lactamase FRET ratio, 17 h; activation: at 62.6 µM (top of the series) unless noted", "procedure,_shortened": "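Beta-lactamase reporter readout: a ratiometric FRET signal from the LiveBLAzer substrate after 2 h at room temperature. Compound exposure at 37 °C in PPARδ-bla HEK293H cells driven by an upstream activator sequence.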"}, "[3]": {"assay": "qHTS assay to identify small molecule antagonists of the progesterone receptor (PR) signaling pathway - cell viability counter screen (AID 1346798); further: nearly all actives have a fitted effect of over 50% in size", "procedure,_shortened": "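HEK293T PR-UAS-bla, 2% charcoal-stripped FBS; 4 hr pre-plate; cpd + R5020, 16 h 37C; LiveBLAzer read first; then CellTiter-Glo 30 min RT, luminescence.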"}, "[4]": {"target": "Cytochrome P450 2C19 (Homo sapiens) (UniProt P33261)", "sequence (P33261 whole entry, looked up)": "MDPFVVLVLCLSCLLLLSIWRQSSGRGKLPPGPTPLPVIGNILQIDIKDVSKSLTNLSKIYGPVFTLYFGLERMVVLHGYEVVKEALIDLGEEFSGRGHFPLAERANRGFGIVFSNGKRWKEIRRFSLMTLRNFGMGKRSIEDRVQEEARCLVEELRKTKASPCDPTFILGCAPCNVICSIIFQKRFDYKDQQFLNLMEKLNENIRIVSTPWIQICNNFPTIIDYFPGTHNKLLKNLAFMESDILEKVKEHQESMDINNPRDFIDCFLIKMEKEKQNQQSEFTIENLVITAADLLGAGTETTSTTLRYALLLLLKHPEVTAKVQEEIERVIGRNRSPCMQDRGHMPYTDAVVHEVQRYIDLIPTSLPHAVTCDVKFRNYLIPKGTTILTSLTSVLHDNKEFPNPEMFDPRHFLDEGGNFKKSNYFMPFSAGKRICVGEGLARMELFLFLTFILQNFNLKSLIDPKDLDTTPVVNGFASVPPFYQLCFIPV", "assay": "Cytochrome P450 Family 2 Subfamily C Member 19 (CYP2C19) small molecule antagonists: luciferase reporter qHTS assay (AID 1671197); further: nearly all actives have a fitted effect of over 65% in size; further: potency means the concentration at half of the fitted maximal effect", "procedure,_shortened": "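Compounds were tested on CYP2C19 activity via proluciferin conversion to luciferin. The 37C, 1 h reaction followed NADPH addition; detection reagent stopped it.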"}, "[5]": {"target": "Bile acid receptor (Homo sapiens) (UniProt Q96RI1)", "sequence (Q96RI1 whole entry, looked up)": "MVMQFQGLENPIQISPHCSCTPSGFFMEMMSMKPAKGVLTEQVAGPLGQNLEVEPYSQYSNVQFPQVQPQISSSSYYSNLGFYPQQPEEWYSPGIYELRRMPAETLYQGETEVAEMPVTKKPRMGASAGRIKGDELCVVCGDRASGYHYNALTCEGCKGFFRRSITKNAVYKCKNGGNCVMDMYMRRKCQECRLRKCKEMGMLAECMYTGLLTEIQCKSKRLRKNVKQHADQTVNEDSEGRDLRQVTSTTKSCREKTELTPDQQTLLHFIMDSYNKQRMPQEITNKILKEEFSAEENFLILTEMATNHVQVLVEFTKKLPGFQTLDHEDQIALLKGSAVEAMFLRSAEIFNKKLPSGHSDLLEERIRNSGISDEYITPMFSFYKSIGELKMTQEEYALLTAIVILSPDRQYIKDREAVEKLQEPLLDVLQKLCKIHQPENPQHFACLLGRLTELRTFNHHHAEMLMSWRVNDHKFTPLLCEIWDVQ", "assay": "qHTS assay to identify small molecule antagonists of the farnesoid-X-receptor (FXR) signaling pathway (AID 743217; active means well fitted inhibition curve with a large enough effect in the signal ratio in the repeat runs, not every such curve was filed as active; inconclusive means weak or mixed curves, or effect the other way; inactive means no such curve, though single readings can be large or run the other way; the % refers to the signal ratio; further: potency means the concentration at half of the fitted maximal effect)", "conditions": "HEK293T FXR-UAS-bla, beta-lactamase ratio, CDCA-stimulated, 16 h; activity change, negative = inhibition: at 62.6 µM (top of the series) unless noted", "procedure,_shortened": "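Screen of the Tox21 10K library in quantitative HTS format using FXR-UAS-bla HEK 293T reporter cells. Agonist chenodeoxycholic acid, 50 uM final, added with compounds; 16 h incubation at 37 °C; beta-lactamase FRET fluorescence measured.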"}, "[6]": {"assay": "qHTS assay to identify small molecule antagonists of the estrogen receptor beta (ER-beta) signaling pathway - cell viability counter screen (AID 1259382); further: nearly all actives have a fitted effect of over 55% in size", "procedure,_shortened": "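Viability is scored by CellTiter-Glo luminescence (30 min, room temperature) in ER-beta-UAS-bla HEK293T wells already read for reporter fluorescence. Compound exposure lasts 16 hr at 37C alongside 1nM 17-beta-estradiol in charcoal-stripped serum medium.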"}, "[7]": {"assay": "qHTS assay to identify small molecule agonists of the progesterone receptor (PR) signaling pathway - cell viability counter screen (AID 1346799; calls by dose curve; further: nearly all actives have a fitted effect of over 45% in size)", "procedure,_shortened": "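Luminescence from CellTiter-Glo, added after the beta-lactamase FRET read in the same wells, gave cytotoxicity in PR-UAS-bla HEK293T cells treated with compounds for 16 hr at 37C.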"}, "[8]": {"assay": "Caspase-3/7 induction in HepG2 cells by small molecules, qHTS cell viability counter screen (AID 1346981); further: nearly all actives have a fitted effect of over 30% in size", "procedure,_shortened": "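In this quantitative HTS counter screen, compounds delivered in DMSO were left on unmodified HepG2 cells for 16 hr at 37 C. Viability was then determined fluorometrically with CellTiter-Fluor, in parallel with caspase-3/7 induction in the same wells.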"}, "[9]": {"assay": "qHTS assay to identify small molecule agonists of the TGF-beta/Smad signaling pathway (AID 1346859; active means well fitted activation curve with a large enough effect in the signal ratio in the repeat runs, not every such curve was filed as active; inconclusive means weak or mixed curves; the % refers to the signal ratio; further: potency means the concentration at half of the fitted maximal effect)", "procedure,_shortened": "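SBE-bla HEK 293T, 4,000 cells/well, plated o/n; cpd in DMSO, 5 hr, 37 C/5% CO2; B/G FRET substrate 2 hr RT; ex 405, em 460/530 nm.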"}, "[10]": {"target": "Androgen receptor (Homo sapiens) (UniProt P10275)", "sequence (P10275 whole entry, looked up)": "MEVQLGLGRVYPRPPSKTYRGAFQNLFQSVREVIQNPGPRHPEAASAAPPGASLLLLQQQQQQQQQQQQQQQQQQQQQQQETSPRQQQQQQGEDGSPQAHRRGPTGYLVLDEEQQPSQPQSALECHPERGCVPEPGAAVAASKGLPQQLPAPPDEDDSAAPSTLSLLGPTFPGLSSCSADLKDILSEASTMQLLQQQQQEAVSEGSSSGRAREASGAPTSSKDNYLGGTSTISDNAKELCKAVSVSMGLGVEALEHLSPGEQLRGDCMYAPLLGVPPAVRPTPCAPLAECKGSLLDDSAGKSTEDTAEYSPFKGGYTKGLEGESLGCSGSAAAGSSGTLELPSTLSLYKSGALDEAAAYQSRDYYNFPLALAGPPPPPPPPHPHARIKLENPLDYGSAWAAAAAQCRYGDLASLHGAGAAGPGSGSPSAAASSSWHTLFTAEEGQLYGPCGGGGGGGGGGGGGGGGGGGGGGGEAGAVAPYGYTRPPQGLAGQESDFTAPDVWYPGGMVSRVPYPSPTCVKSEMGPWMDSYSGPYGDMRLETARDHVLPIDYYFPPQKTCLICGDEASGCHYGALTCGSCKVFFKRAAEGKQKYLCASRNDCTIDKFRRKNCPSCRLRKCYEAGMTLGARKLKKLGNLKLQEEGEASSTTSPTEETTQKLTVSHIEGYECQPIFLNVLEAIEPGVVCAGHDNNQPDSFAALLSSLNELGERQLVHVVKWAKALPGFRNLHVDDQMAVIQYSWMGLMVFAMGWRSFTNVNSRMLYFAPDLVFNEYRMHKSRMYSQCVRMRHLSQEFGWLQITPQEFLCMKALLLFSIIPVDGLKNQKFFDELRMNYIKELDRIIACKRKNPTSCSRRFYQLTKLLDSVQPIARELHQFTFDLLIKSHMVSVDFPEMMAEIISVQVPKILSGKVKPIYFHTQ", "assay": "qHTS assay to identify small molecule antagonists of the androgen receptor (AR) signaling pathway using the MDA cell line (AID 743042; further: potency means the concentration at half of the fitted maximal effect; nearly all actives have a fitted effect of over 55% in size)", "procedure,_shortened": "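Antagonist mode: compounds plus R1881 agonist added to MDA-kb2 AR-luc cells, incubated 16 h at 37C. Luciferase reporter luminescence quantified, with multiplexed CellTiter-Fluor readout for cell viability.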"}, "[11]": {"target": "Nuclear receptor subfamily 1 group I member 2 (Homo sapiens) (UniProt O75469)", "assay": "CYP3A4 induction through human pregnane X receptor (PXR) by small molecules, qHTS assay (AID 1346984); further: nearly all actives have a fitted effect of over 40% in size", "conditions": "DPX-2 HepG2 PXR, CYP3A4-luciferin luminescence, 24 h; activation: at 46.1 µM (top of the series) unless noted", "procedure,_shortened": "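Induction measured in HepG2-based DPX-2 cells co-expressing human PXR and a CYP3A4 promoter-driven luciferase. After a 24-hour compound exposure, cells received CYP3A4 luciferin substrate at 3uM final for 3 hours, and light output was then recorded.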"}, "[12]": {"assay": "qHTS assay to identify small molecule antagonists of the peroxisome proliferator-activated receptor gamma (PPARg) signaling pathway - cell viability counter screen (AID 743194); further: potency means the concentration at half of the fitted maximal effect; nearly all actives have a fitted effect of over 55% in size", "conditions": "PPARg-bla HEK293H viability, CellTiter-Glo luminescence, 17 h, co-treated with 50 nM rosiglitazone; activity change, negative = cytotoxicity: at 62.6 µM (top of the series) unless noted", "procedure,_shortened": "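Viability was measured as CellTiter-Glo luminescence in GeneBLAzer PPARg UAS-bla HEK293H cells. These cells had been exposed 17 h at 37 C to compounds together with rosiglitazone at 50 nM final, with the beta-lactamase readout taken in the same wells.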"}, "[13]": {"assay": "qHTS assay for small molecule agonists of the p53 signaling pathway - cell viability (AID 651633; calls by dose curve; further: potency means the concentration at half of the fitted maximal effect; nearly all actives have a fitted effect of over 30% in size)", "procedure,_shortened": "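Viability counter-read: CellTiter-Glo luminescence (30 min, room temperature) in the same p53RE-bla plates. These plates had been exposed to compounds for 16 h at 37 C.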"}, "[14]": {"assay": "qHTS assay to identify small molecule agonists of the peroxisome proliferator-activated receptor delta (PPARd) signaling pathway - cell viability counter screen (AID 743211); further: potency means the concentration at half of the fitted maximal effect; nearly all actives have a fitted effect of over 55% in size", "conditions": "PPARd-bla HEK293H viability, CellTiter-Glo luminescence, 17 h; activity change, negative = cytotoxicity: at 62.6 µM (top of the series) unless noted", "procedure,_shortened": "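HEK293H PPARd-bla, 3000 cells/well; 5 h preincubation 37C/5% CO2; cpd in DMSO, 17 h 37C; B/G FRET substrate 2 h RT; CellTiter-Glo 30 min RT, luminescence.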"}, "[15]": {"assay": "qHTS assay to identify small molecule agonists of the farnesoid-X-receptor (FXR) signaling pathway - cell viability counter screen (AID 743218); further: potency means the concentration at half of the fitted maximal effect; nearly all actives have a fitted effect of over 45% in size", "conditions": "FXR-bla HEK293T viability, CellTiter-Glo luminescence, 16 h; viability change, negative = cytotoxic: at 62.6 µM (top of the series) unless noted", "procedure,_shortened": "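Viability of FXR-bla HEK 293T cells is measured by ATP-based CellTiter-Glo luminescence following 16 h compound treatment at 37 C and a prior 2 h room-temperature beta-lactamase substrate step.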"}}, "note": "The shares of active, inactive and inconclusive entries below differ from those in the screen. A call without a number means that no potency is given here. For some assays here: A potency beside an inconclusive call is a rough fit, not a confirmed value. Activity calls are given as the source filed them. Unless noted, the call rests on the fitted dose curve; in most records, active means well fitted curve in the direction sought with a large enough effect in the repeat runs; inconclusive means weak or mixed curves; inactive means no such curve, though single readings can be large; an effect the other way counts as inactive or inconclusive. Tags describe the fitted curve by direction and shape or compound fluorescence and quenching.", "data": [{"compound": "NS(=O)(=O)c1cc2c(cc1Cl)NC(CSCc1ccccc1)=NS2(=O)=O", "values": [{"measurement": "Potency", "setting": "[1]", "value": "inactive"}, {"measurement": "Potency", "setting": "[2]", "value": "inactive"}, {"measurement": "Potency", "setting": "[3]", "value": "inactive"}, {"measurement": "Potency", "setting": "[4]", "value": "inconclusive: 0.389 µM [inhibitor, single point]"}]}, {"compound": "O=P(O)(OCc1ccccc1)OCc1ccccc1", "values": [{"measurement": "Potency", "setting": "[5]", "value": "inconclusive: 54.8 µM [inhibitor, single point]"}, {"measurement": "Potency", "setting": "[6]", "value": "inactive"}, {"measurement": "Potency", "setting": "[7]", "value": "inactive"}]}, {"compound": "OC/C=C/c1ccccc1", "values": [{"measurement": "Potency", "setting": "[8]", "value": "inactive"}]}, {"compound": "CCOC(=O)c1ccccc1O", "values": [{"measurement": "Potency", "setting": "[9]", "value": "inconclusive: 0.379 µM [falling, full curve, poor fit]"}, {"measurement": "Potency", "setting": "[8]", "value": "inactive"}]}, {"compound": "CC/C=C\\CC1=C(C)CCC1=O", "values": [{"measurement": "Potency", "setting": "[10]", "value": "inconclusive: 68.6 µM [inhibitor, single point]"}, {"measurement": "Potency", "setting": "[7]", "value": "inactive"}, {"measurement": "Potency", "setting": "[9]", "value": "inactive"}]}, {"compound": "COc1ccc2c(c1)N(C[C@H](C)CN(C)C)c1ccccc1S2", "values": [{"measurement": "activation", "setting": "[11]", "value": "inconclusive: 62.3% [activator] [at 20.6 µM]"}]}, {"compound": "CC1=CC=C(C(C)C)CC1", "values": [{"measurement": "Potency", "setting": "[12]", "value": "inconclusive: 15.5 µM [cytotoxic, partial curve, poor fit]"}]}, {"compound": "CCCCC(=O)OCC(=O)[C@]1(O)Cc2c(O)c3c(c(O)c2[C@@H](O[C@H]2C[C@H](NC(=O)C(F)(F)F)[C@H](O)[C@H](C)O2)C1)C(=O)c1c(OC)cccc1C3=O", "values": [{"measurement": "Potency", "setting": "[13]", "value": "inconclusive: 2.66 µM [cytotoxic, partial curve, poor fit]"}]}, {"compound": "CCOc1ccc(C(=O)OCCN(CC)CC)cc1", "values": [{"measurement": "Potency", "setting": "[14]", "value": "inconclusive: 7.5 µM [cytotoxic, single point]"}, {"measurement": "Potency", "setting": "[15]", "value": "inconclusive: 42.2 µM [cytotoxic, partial curve, poor fit]"}, {"measurement": "Potency", "setting": "[4]", "value": "inactive"}]}, {"compound": "CC(=O)[C@@]1(O)CC[C@H]2[C@@H]3C=C(Cl)C4=CC(=O)CC[C@]4(C)[C@H]3CC[C@@]21C", "values": [{"measurement": "Potency", "setting": "[13]", "value": "inconclusive: 33.5 µM [cytotoxic, partial curve, poor fit]"}]}]}
